Reference: PubChem BioAssay AID602332 (National Center for Advancing Translational Sciences (NCATS), 2012)
The campaign covered roughly 420,000 compounds. About 75 (0.02%) were called active. The shares of active, inactive and inconclusive entries below differ from those in the screen. The call rests on the fitted dose curve; in most records, active means well fitted activation curve with a large enough effect; inconclusive means small, poorly fitted or top-dose-only effect; inactive means no such curve, though single readings can be large or run the other way. A potency beside an inconclusive call is a rough fit, not a confirmed value.

Assay: qHTS for Inducers of the Endoplasmic Reticulum Stress Response (ERSR) in Human Glioma: qHTS; further: nearly all actives have a fitted effect of over 35% in size; on activation: % of control where 0% means no effect
Conditions: U87-MG GRP78 promoter luciferase reporter, 16 h; activation: hits give high values
How it was run: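 Stably transfected U87-MG human glioma cells carrying a GRP78-based luminescent sensor were seeded at 1000 cells/well, pin-dosed with compounds and incubated 16 h. Luciferase reagent was then added, and end-point luminescence was read after 10 min at room temperature.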
Potency means the concentration at half of the fitted maximal effect; tags describe the fitted curve by direction and shape.

activation, inconclusive:
CC(=O)NC1C(OC2OC(CC(O)C3OC([N+]4=CCC(=O)NC4=O)C(O)C3O)C(O)C(O)C2NC(=O)/C=C/CCCCCCCCC(C)C)OC(CO)C(O)C1O (stereo not given) 62.4% [activator]

activation, inactive:
O=C(CSc1nc2ccccc2c(=O)n1-c1ccc(F)cc1F)c1c[nH]c2ccccc12 -5.09%
C[C@]12CC[C@@H]3C(=CCc4cc(O)ccc43)[C@@H]1CCC2=O 2.61%
CCCN1CCN(CCCNC(=O)c2ccc3c(Cl)c4c(nc3c2)CCCC4)CC1 0.639%
CCOc1ccc(CCNC(=O)COC(=O)C2CC2)cc1OCC -2.71%
O=C1C(c2ccc(F)cc2)N(Cc2ccccc2Cl)C(=O)CN1C1CCCCC1 (stereo not given) -1.32%
O=C(O)CCCN1C(=O)c2cccc3cccc(c23)C1=O 1.86%
N#CNC(=Nc1cccc(C(F)(F)F)c1)SCc1ccc(C(=O)O)cc1 4.15%
COc1ccc(-c2csc(NC(=O)CSc3nc4ccccc4c(=O)[nH]3)n2)cc1 0.257%
CCN(c1ccccc1)S(=O)(=O)c1ccc2c(c1)CC(C)N2C(=O)C1CC1 (stereo not given) -6.75%
O=c1ccc(-c2ccc(S(=O)(=O)NCC3CCN(Cc4ccccc4F)CC3)s2)n[nH]1 -2.1%
CCN(CC)CCNC(=O)c1ccccc1N -1.22%
O=S(=O)(c1ccccc1F)N1CCN(Cc2nc3ccccc3[nH]2)CC1 -3.78%
O=S(=O)(Nc1ncnc2c1oc1ccccc12)c1ccc(Cl)s1 3.42%
CC(C)NS(=O)(=O)c1ccc(OCC(=O)Nc2cccc(F)c2)cc1 -0.547%
Cc1cccc(NC(=O)c2ccccc2O)c1C 5.04%
CCOc1ccc(NC2SC(=O)N(Cc3ccccc3)C2=O)cc1 (stereo not given) 0.56%
CC(=O)Nc1ccc(C(=O)Nc2ccc(S(=O)(=O)NCC3CCCO3)cc2)cc1 (stereo not given) -1.88%
O=C(NCc1nnnn1-c1ccc(F)c(F)c1)c1ccc2c(c1)OCO2 -7.66%
NC(=O)c1cc([N+](=O)[O-])ccc1NCc1cccc2ccccc12 -3.73%
C#CCOc1c(Cl)cc(/C=C2/C(=O)ON=C2C)cc1OCC 7.87%
O=C(NC(=S)Nc1cccnc1Cl)c1ccco1 -2.16%
O=C(C=C(O)c1ccc(Cl)cc1)C(=O)NNC(=O)C(O)(c1ccccc1)c1ccccc1 -1.55%
CCN(CC)CCNC(=O)c1cc([N+](=O)[O-])c(N(C)C)cc1OC 1.08%
Cc1ccc(S(=O)(=O)N(CCC(=O)N2CCOCC2)c2ccccc2)cc1 0.63%
Cc1ccc(C(=O)COC(=O)CNC(=O)CNC(=O)c2ccc(C)cc2)cc1 -0.497%
Cc1ccc(CNC(=O)c2nn(C)c(C)c2[N+](=O)[O-])cc1 -5.22%
CCOC(=O)c1c(C)oc2nc(C)nc(NCc3ccc(C)cc3)c12 -2.84%

Potency, active:
COc1ccc(C(=O)c2sc(Nc3cccc(OC)c3)c(C(=O)Nc3cccc(C)c3C)c2N)cc1 12.6 µM
COc1ccccc1Cc1c(-c2ccc(F)cc2)nc2c(C)cc(Br)cn12 35.5 µM

Potency, inconclusive:
O=C(/C=C/c1cccc([N+](=O)[O-])c1)NCCSc1ccccc1 35.5 µM [activator, partial curve, poor fit]
O=C(Cc1ccccc1)Nc1nc(-c2ccc(F)c(F)c2)cs1 63.1 µM [activator, single point]
C=C(c1ccc(O)cc1)c1ccc(O)cc1 12.6 µM [activator, single point]
Cc1ccc(NC(=O)CSC(N)=O)cc1Cl 44.7 µM [activator, single point]
O=C(CCC1CCCC1)NNC(=O)c1cccc(Cl)c1 50.1 µM [activator, single point]
O=C(Nc1ccon1)c1cc2c(s1)CCCC2 2.24 µM [activator, partial curve, poor fit]
S=C(Nc1ccccc1)Nc1nccs1 18.5 µM [activator, single point]
CCOC(=O)c1c(C)[nH]c(C(=O)CN2C(=O)C(=O)N(CC(C)C)C2=O)c1C 2 µM [activator, full curve, poor fit]
Cc1ccc2c(c1)C(=O)C(=O)N2Cc1ccc(OC(C)C)cc1 50.1 µM [activator, single point]
COc1cc(OC)cc(-c2nc3ccccc3s2)c1 1.78 µM [activator, full curve]
Cc1cccc(NC(=O)CSCC(=O)Nc2ccc(S(=O)(=O)N3CCOCC3)cc2)c1 11.2 µM [activator, single point]
Clc1ccc(-c2csc(NNC3=NCCCCC3)n2)cc1 39.8 µM [activator, partial curve, poor fit]
CCCCCOc1ccc(/C=C/C(=O)Nc2sc(C(C)=O)c(C)c2C(=O)OCC)cc1OC 50.1 µM [activator, single point]
O=C1NC(c2ccccn2)Nc2sc3c(c21)CCC3 (stereo not given) 56.2 µM [activator, single point]
O=c1c(-c2ccc(Cl)cc2)c[nH]n1-c1ccccc1 10 µM [activator, partial curve, poor fit]
CCCCn1c(NC(=S)Nc2ccccc2)nc2ccccc21 50.1 µM [activator, single point]
O=C(CCn1c(=O)c2cccn2c2cccnc21)NCc1cccc(Cl)c1 44.7 µM [activator, partial curve, poor fit]
COC(=O)CSc1nc(-c2ccc(F)cc2)cc(C(F)(F)F)n1 8.91 µM [activator, partial curve, poor fit]
CC(=O)OCC1OC(C#Cc2ccccc2)C=CC1OC(C)=O (stereo not given) 11.2 µM [activator, single point]
O=C(Nc1ccc(Cl)cc1)Nc1nnc(Cc2ccc([N+](=O)[O-])cc2)s1 15.8 µM [activator, single point]
COC(=O)c1cc(CSc2nc3ccccc3c(=O)n2C)oc1C 28.2 µM [activator, single point]
O=S(c1cc(Cl)cc(Cl)c1O)c1cc(Cl)cc(Cl)c1O 56.2 µM [activator, single point]
O=C(Nc1ccc2c(c1)CCC2)Nc1ccc(F)cc1F 44.7 µM [activator, partial curve, poor fit]
Cc1cccc(NCc2ccccc2O)c1 44.7 µM [activator, partial curve, poor fit]
COc1ccc(C(=O)N2CCCN(C)CC2)c(OC)c1 28.2 µM [activator, single point]
O=C(NNC(=O)c1cccc(S(=O)(=O)N2CCCCC2)c1)c1ccccc1 14.1 µM [activator, single point]
O=C(Nc1cc(-c2ccccc2)[nH]n1)c1ccccc1 10 µM [activator, partial curve, poor fit]
CC(=O)c1ccc(NC(=O)Cn2c3ncccc3c(=O)n2-c2ccc(C)cc2)cc1 50.1 µM [activator, single point]
O=C(Oc1cccc2cccnc12)c1cccs1 50.1 µM [activator, single point]
Cc1ccc(F)c(C2C3C=CCC(C)C3C(=O)N2Cc2ccccc2)c1 (stereo not given) 50.1 µM [activator, single point]
CCCOC(=O)N1CCN(/[N+]([O-])=N/Oc2ccc([N+](=O)[O-])cc2[N+](=O)[O-])CC1 28.2 µM [activator, single point]
O=C(NCc1ccco1)c1ccc([N+](=O)[O-])o1 12.6 µM [activator, single point]
O=C(N/N=C/c1cccc(Oc2ccccc2)c1)c1cccc(O)c1 2 µM [activator, full curve, poor fit]
Cc1nc(SCC(=O)c2ccccc2)c(C#N)c(-c2ccco2)c1C(=O)NCc1ccco1 44.7 µM [activator, partial curve, poor fit]
CC1CN(C(=O)/C(=C/c2ccco2)NC(=O)c2ccccc2)CC(C)O1 (stereo not given) 28.2 µM [activator, single point]
Cn1cccc1C(=O)N1CCC2(CCCN(C(c3ccccc3)c3ccccc3)C2)CC1 44.7 µM [activator, single point]
Cc1ccc(NC(=S)NNC(C)(C)C)cc1 12.6 µM [activator, partial curve, poor fit]
COc1ccc(C(=O)/C=C2/C(=O)Nc3ccccc32)cc1 11.2 µM [activator, single point]
Cc1cccc(-c2nc(CS(=O)CC(=O)N3CC(C)CC(C)C3)c(C)o2)c1 (stereo not given) 8.91 µM [activator, partial curve, poor fit]
CCOc1ccccc1NC(=O)CCCc1nc2ccccc2c(=O)[nH]1 28.2 µM [activator, single point]
